# Laboratory results from PubChem BioAssay (NCATS).
# Values joined by “and” are separate entries in the source; they are usually repeats but may differ in a detail not shown here. Equal entries are not always repeated. Inconclusive results, whose numbers are uncertain, are shown with a selection of clear calls. A potency beside an inconclusive call is a rough fit, not a confirmed value. Active and inactive are the calls of the source. Calls follow the shape of the dose curve; as a rule, active = well fitted inhibition curve with a large enough effect; inconclusive = small, poorly fitted or top-dose-only effect, or effect the other way; inactive = flat fitted curve, though single readings scatter.
# Assay: qHTS for Inhibitors of Plasmodium falciparum (GB4) proliferation (AID 504315); also: nearly all actives have a fitted effect of over 50% in size;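 as to activity change, negative = inhibition: 0% = DMSO vehicle and -100% = 0.29 µM artemisinin control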
# Settings: P. falciparum GB4 in erythrocytes, SYBR Green DNA, 72 h; activity change, negative = inhibition: at 6.7 µM (top of the series)
# Summary of the method: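 Parasite growth measured as SYBR Green DNA fluorescence (ex 485, em 535 nm) after overnight lysis following 72 h culture at 37 °C, 0.3% parasitemia, 2.5% hematocrit. Values normalized against DMSO and 0.29 uM artemisinin controls, with plate-stack correction.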
# Potency is read from the fitted curve at half-maximal effect; tags tell the direction and shape of the fitted curve.
SMILES,Potency,"activity change, negative = inhibition"
COC(=O)N[C@H](C(C(=O)OC)=C(C)NCc1ccccc1)c1ccccc1,"inconclusive: 2.69 µM [inhibitor, single point]",–
CCN1C(=NCCCCO)N[C@@H](CCc2ccccc2)[C@H](C(=O)OC)[C@H]1C,"inconclusive: 0.0536 µM [inhibitor, full curve, poor fit]",–
COC(=O)C1=C(C(=O)OC)[C@@H]2Nc3ccccc3[C@@]23C[C@@H](C(=O)OC)N(S(=O)(=O)c2ccc(C(F)(F)F)cc2)C3=N1,"inconclusive: 1.69 µM [inhibitor, partial curve]",–
CCOC(=O)C1(C(=O)OCC)CC2=C(C=CC3=C(C=C2)CC(C(=O)OCC)(C(=O)OCC)C3)C1,"inconclusive: 4.26 µM [inhibitor, single point]",–
COC(=O)CCC(=O)OC1(C)C(=O)C=C2C=C(C3CC3)N(c3cccc(C#N)c3)C=C2C1=O (stereo not given),"inconclusive: 2.13 µM [inhibitor, partial curve, poor fit]",–
C=CCN1c2ccccc2[C@]23C[C@@H](C(=O)OC)N(C(=O)c4cccs4)C2=NC(C(=O)OC)=C(C(=O)OC)[C@H]13,"inactive and inconclusive: 3.4 nM [inhibitor, full curve, poor fit]",–
CCCCc1cc2c(cn1)=C(OC(=O)c1cnc3ccccc3n1)C(C)(OC(=O)CC)C(=O)C=2 (stereo not given),"inconclusive: 1.9 µM [inhibitor, partial curve] and inconclusive: 1.69 µM [inhibitor, partial curve]",–
C#CCCCON=C1C[C@@H](O)[C@H](O)[C@H]2[C@@H]3C(=O)N(C4CCCCC4)C(=O)[C@@H]3CC[C@@H]12,–,inactive: -9.97%
COc1ccc2c(c1)[C@@]1(OCCC=C[C@@H]1C)C(=O)N2Cc1ccc(F)cc1,"inconclusive: 1.69 µM [inhibitor, single point]",–
CC1(OC(=O)CCc2ccccc2)C(=O)C=C2C=C(c3ccc(C#N)cc3)N(c3ccccc3)C=C2C1=O (stereo not given),"inconclusive: 4.78 µM [activator, partial curve, poor fit]",–
C=C(C)C1CC23C(=O)[C@]4(C(=O)c5ccccc5)C[C@@]5(C)CCC(CC2C1(C)C)(C4=O)[C@@]35OC (stereo not given in full),"inconclusive: 4.26 µM [inhibitor, single point]",–
C=C(C(C)=O)C(O)c1ccccc1 (stereo not given),–,inactive: -11.6%
COc1cccc(C(CC2=CCCCC2)NC(=O)C(F)(F)F)c1 (stereo not given),"inconclusive: 2.69 µM [inhibitor, partial curve, poor fit]",–
C[C@H]1Cc2c(COc3ccccc3)nc3c(c2CO1)CN(C(=O)c1cc(I)ccc1F)CC3,"inconclusive: 1.9 µM [inhibitor, single point] and inconclusive: 4.26 µM [inhibitor, single point]",–
COC(=O)C1=C(C(=O)OC)[C@@H]2N(C)c3ccc(OC)cc3[C@@]23C[C@@H](C(=O)OC)N(S(=O)(=O)c2ccc(C(F)(F)F)cc2)C3=N1,"inconclusive: 4.26 µM [inhibitor, single point]",–
C=C(C#Cc1ccc(OC)cc1)CCN1C=C(C(=O)OCC)C(c2ccccc2)NC1=O (stereo not given),–,inactive: -3.62%
COc1ccc2c(c1)[C@@H](NC(=O)C(F)(F)F)C1CCCCC21c1ccccc1 (stereo not given in full),"inconclusive: 2.13 µM [inhibitor, single point]",–
COC(=O)C1=C(C(=O)OC)[C@@H]2N(C)c3ccc(OC)cc3[C@@]23C[C@@H](C(=O)OC)N(S(=O)(=O)c2ccc(C)cc2)C3=N1,"inconclusive: 4.26 µM [inhibitor, partial curve, poor fit]",–
Cc1cc2c(c(=O)o1)[C@H]1O[C@](CCCCN3C(=O)c4ccccc4C3=O)(Cc3cc(C#N)ccc31)O2,–,inactive: 7.84%
COC(=O)N1C2=C(c3ccccc3[C@@H]1CC(=O)Nc1ccc(Br)cc1)[C@@H]1C(=O)N(c3ccccc3)C(=O)[C@@H]1[C@H](C)C2,"inconclusive: 1.69 µM [inhibitor, single point]",–

SMILES,Potency,"activity change, negative = inhibition"
COc1ccc2c(c1)c(CC(=O)NCc1ccc3c(c1)OCO3)c(C)n2C(=O)c1ccc(Cl)cc1,–,inactive: 6.36%
COC(=O)C1=C(C(=O)OC)[C@@H]2N(C)c3ccccc3[C@@]23CCC(=O)N(Cc2ccc(OC)cc2)C3=N1,–,inactive: -14.2%
COc1cccc([C@@H]2Oc3ccc(OC)cc3C(=O)[C@@H]2OC(=O)N[C@H]2CCCc3ccccc32)c1,"inconclusive: 3.38 µM [inhibitor, partial curve, poor fit]",–
COc1cccc(CC(=O)N2CCc3nc(-c4ccc(OC)cc4C)c4c(c3C2)CO[C@@H](c2ccccc2)C4)c1,"inconclusive: 1.51 µM [inhibitor, partial curve]",–
COC(=O)C1=C(C(=O)OC)[C@@H]2Nc3ccccc3[C@@]23C[C@@H](C(=O)OC)N(C(=O)COCc2ccccc2)C3=N1,"inconclusive: 0.269 µM [activator, partial curve, poor fit]",–
CCN(CC)CCCN1C=C2C(=O)C(C)(OC(=O)c3cccs3)C(=O)C=C2C=C1CCCC(=O)OC (stereo not given),inconclusive: 0.0008 µM [activator],–
COC(=O)c1ccc(CN2C(=O)[C@]3(OCCC=C[C@@H]3C)c3c(Br)cccc32)cc1,"inconclusive: 1.07 µM [inhibitor, partial curve]",–
C=CCN1c2ccccc2[C@]23C[C@@H](C(=O)OC)N(C(=O)c4cc(C)oc4C)C2=NC(C(=O)OC)=C(C(=O)OC)[C@H]13,–,inactive: -4.29%
CCC12C=C(C=Cc3ccccc3)C(CC)(C1)C(c1ccccc1)CC2=O (stereo not given),–,inactive: -2.87%
COC(=O)[C@]1(C=C2c3ccccc3C[C@H](OC)[C@@H]2C)[C@@H]2CC=C[C@@H]21,–,inactive: -7.4%
COC(=O)C1=C(C(=O)OC)[C@@H]2Nc3ccccc3[C@@]23C[C@@H](C(=O)OC)N(C(=O)c2cc(C)oc2C)C3=N1,"inconclusive: 4.26 µM [inhibitor, single point]",–
COC(=O)C1=C(C)N(Cc2ccccc2)C(=NCCc2c[nH]c3ccccc23)NC1c1ccc(Br)cc1 (stereo not given),"inconclusive: 1.07 µM [inhibitor, partial curve, poor fit]",–
COC(=O)C1=C(C(=O)OC)[C@@H]2N(C)c3ccc(OC)cc3[C@@]23C[C@@H](C(=O)OC)N(C(=O)CC(C)C)C3=N1,"inconclusive: 1.69 µM [inhibitor, partial curve]",–
CC(C)=CCCC(C)=CCN1C(=O)[C@]2(OCCC=C[C@H]2C)c2ccccc21,"inconclusive: 1.9 µM [inhibitor, partial curve, poor fit]",–
Cc1ccccc1Nc1oc(-c2ccccc2)nc1C=Cc1ccccc1,"inconclusive: 1.51 µM [inhibitor, single point]",–
C#CCCOC(=O)N1C2=NC(C(=O)OC)=C(C(=O)OC)[C@@H]3N(Cc4ccccc4)c4ccccc4[C@]23C[C@H]1C(=O)OC,"inconclusive: 1.9 µM [inhibitor, single point]",–
CCN1C(=O)NC(c2ccc(Br)cc2)C(C(C)=O)=C1C (stereo not given),"inconclusive: 3.38 µM [inhibitor, single point]",–
CCCCC1=CC2=C(c3ccco3)C(=O)C(C)(OC(=O)c3ccc(OC)cc3)C(=O)C2=CN1C1CCCCC1 (stereo not given),"inconclusive: 1.9 µM [inhibitor, partial curve, poor fit]",–
C=CCC12OC3(OC)CC1[C@H](C)[C@@H](c1ccccc1)C2[C@]3(O)CC=C (stereo not given in full),"inconclusive: 0.0019 µM [inhibitor, partial curve, poor fit]",–
CC[C@@H](C)CN1C(=O)N[C@@H](CCc2ccccc2)C(C(C)=O)=C1C,inactive,–
